Experimental data taken from publication PMC4336329 (PLoS ONE, 2015).
Hit rate of the full screen: of about 310,000 compounds, about 14,000 (4.5%) showed an effect of 50% or more. The effect is printed as a negative number. The list shows a part of the results.

biological target: human ether-à-go-go-related gene (hERG) potassium channel (human, UniProt Q12809); assay: primary screen, population patch clamp on CHO cells stably expressing hERG
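Further: peak tail current of the secondary pulse compared with the same well before compound.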

Sequence of human ether-à-go-go-related gene (hERG) potassium channel (Q12809 whole entry, looked up): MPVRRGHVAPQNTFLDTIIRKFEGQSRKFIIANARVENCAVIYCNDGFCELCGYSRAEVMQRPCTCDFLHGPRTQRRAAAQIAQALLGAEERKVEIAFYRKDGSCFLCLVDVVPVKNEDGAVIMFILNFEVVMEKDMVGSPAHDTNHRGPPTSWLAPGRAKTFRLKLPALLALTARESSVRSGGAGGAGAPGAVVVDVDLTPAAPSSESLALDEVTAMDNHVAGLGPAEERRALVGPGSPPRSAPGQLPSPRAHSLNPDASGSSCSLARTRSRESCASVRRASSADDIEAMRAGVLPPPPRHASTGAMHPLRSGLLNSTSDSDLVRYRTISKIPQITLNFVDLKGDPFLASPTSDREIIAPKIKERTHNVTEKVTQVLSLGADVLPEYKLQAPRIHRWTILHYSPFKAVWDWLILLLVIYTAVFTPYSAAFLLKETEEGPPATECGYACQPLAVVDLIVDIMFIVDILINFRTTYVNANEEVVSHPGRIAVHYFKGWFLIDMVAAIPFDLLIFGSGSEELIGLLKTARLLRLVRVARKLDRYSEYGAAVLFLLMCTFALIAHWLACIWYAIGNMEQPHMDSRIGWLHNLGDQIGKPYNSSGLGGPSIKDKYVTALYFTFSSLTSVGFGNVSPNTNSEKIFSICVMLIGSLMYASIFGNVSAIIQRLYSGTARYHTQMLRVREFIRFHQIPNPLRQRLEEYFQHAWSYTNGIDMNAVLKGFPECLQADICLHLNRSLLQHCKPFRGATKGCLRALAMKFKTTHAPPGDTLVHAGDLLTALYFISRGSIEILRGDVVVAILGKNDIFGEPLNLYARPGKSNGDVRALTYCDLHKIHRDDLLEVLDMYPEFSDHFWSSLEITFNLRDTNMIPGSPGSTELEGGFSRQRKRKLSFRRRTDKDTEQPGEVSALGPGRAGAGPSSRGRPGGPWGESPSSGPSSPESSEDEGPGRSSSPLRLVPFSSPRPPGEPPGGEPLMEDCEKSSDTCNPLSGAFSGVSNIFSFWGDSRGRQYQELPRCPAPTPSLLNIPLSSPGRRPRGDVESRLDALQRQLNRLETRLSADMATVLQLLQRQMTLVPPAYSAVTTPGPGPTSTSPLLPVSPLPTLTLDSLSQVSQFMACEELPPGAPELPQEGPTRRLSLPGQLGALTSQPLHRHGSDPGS

Compound	hERG current change (%, negative = inhibition) at 10uM
COc1ccc(C(CNC(=O)c2ccc(-c3nc4ccccc4s3)o2)N2CCCC2)cc1 (centres unmarked)	-48.1%
COc1ccc(C(NCC(=O)Nc2c(C)cccc2C)c2ccccc2)cc1.O=C(O)C(=O)O (centres unmarked)	-7.85%
COc1ccc(/C=C/C(=O)Nc2c(C)nn(C)c2C)cc1COc1ccc(Br)cc1	17.2%
COc1ccc(C(=O)Nc2ccccc2-c2nnn(CC(=O)Nc3ccc4c(c3)OCCO4)n2)cc1	-0.148%
Cc1ccc(/C=C(\NC(=O)c2ccccc2)C(=O)NC2CCN(Cc3ccccc3)CC2)o1	-55.5%
COc1ccccc1N(CC(O)Cn1nc(C)cc1C)S(=O)(=O)c1ccccc1 (centres unmarked)	12.2%
O=C(Nc1ccccc1Cl)N1CCN(C/C=C/c2ccccc2)CC1	-25.9%
COc1cc(CNC(=O)c2ccc3c(c2)S(=O)(=O)c2ccccc2C3=O)cc(OC)c1	-0.0926%
O=C(NCc1ccccc1)C1CCCN(S(=O)(=O)c2cccc3nsnc23)C1 (centres unmarked)	4.9%
Cc1noc(C)c1COc1ccc(C(=O)OCC(=O)Nc2ccc(C(=O)N(C)C)cc2)cc1	18.9%
O=C(CSc1ncccc1-c1nc2ccccc2[nH]1)N1CCN(c2ccccc2F)CC1	-23.8%
CC1CCN(S(=O)(=O)c2ccc3c(c2)N(CC(=O)NCCCOC(C)C)C(=O)CO3)CC1	12.8%
CN1CCC(=O)N(CCSc2ccccc2)CC1	-3.36%
CC(C)Oc1ccc(CNS(=O)(=O)c2csc(C(N)=O)c2)cc1	-9.28%
CC(=O)c1cccc(NC(=S)NCCc2ccc(Cl)cc2)c1	-21.6%
Cn1cc(S(=O)(=O)NCc2ccc3c(c2)OCO3)c(C(F)(F)F)n1	5.17%
O=C(COC(=O)c1c(F)cccc1F)c1ccc[nH]1	13.5%
O=C(CCc1ccccc1)NNC(=O)Cc1ccc(Cl)cc1	13.1%
O=C(C=C1SCCS1)/C=C/c1ccco1	-15%
CCOc1ccc(/C=N/NC(=O)CC(=O)NCc2ccccc2)cc1	3.44%
Cc1ccc[n+](C(C)C(=O)c2ccc(-c3ccccc3)cc2)c1.[Br-] (centres unmarked)	-9.47%
CC(CN1CCOCC1)OC(=O)COc1ccc(F)cc1 (centres unmarked)	3.54%
Cc1ccc(S(=O)(=O)N2CCCCC2)cc1C(=O)N(C)CC(=O)Nc1ccc(Cl)c(C(F)(F)F)c1	1.16%
O=C(O)c1cnn(-c2nc(-c3cccc(F)c3)cs2)c1C(F)(F)F	10.7%
CC(=O)Nc1ccc(NC(=O)CSc2nnc3ccc(-c4ccccn4)nn23)cc1	3.71%
CC1CCC(NC(=O)COC(=O)c2ccco2)CC1 (centres unmarked)	7.07%
COc1ccccc1-c1nnc(SCC(=O)Nc2nc(-c3ccccc3)cs2)n1C	-71.8%

Compound	hERG current change (%, negative = inhibition) at 10uM
Cc1sc2nc(C(C)C)nc(SCC(=O)N3CCOCC3)c2c1C	-0.958%
O=C(COC(=O)c1ccc2c(c1)OCO2)NC1CCS(=O)(=O)C1 (centres unmarked)	4.8%
COc1ccc(CCn2c(=S)[nH]c3cc(C(=O)NCc4ccco4)ccc3c2=O)cc1OC	-1.08%
Cc1cc(NC(=O)COn2nnc3ccccc32)no1	6.35%
COc1ccc(CNC(=O)c2nc(S(=O)(=O)Cc3ccccc3)ncc2Cl)cc1	-5.26%
CC1CCc2nc3ccc(S(=O)(=O)N4CCC(C(=O)NC(C)c5ccccc5)CC4)cc3c(C(=O)O)c2C1 (centres unmarked)	12.2%
CS(=O)(=O)N1CCN(C(=O)COc2ccc3ccccc3c2)CC1	1.13%
CCc1ccc(Nc2nc(N3CCOCC3)nc(N3CCOCC3)n2)cc1.Cl	8.6%
O=C(NNC1=NCCCCC1)Nc1ccc(Cl)cc1	20.5%
CC(=O)Nc1ccccc1OCC(=O)NCCC1=CCCCC1	7.87%
COc1ccc(CN(C(=O)c2cccs2)C(C(=O)NC2CCCCC2)c2ccc3ncccc3c2)cc1 (centres unmarked)	-47.9%
COc1ccc(-c2cn3cc(C(F)(F)F)cc(Cl)c3n2)cc1	9.73%
COc1ccc(C(=O)N/C(=C/c2cccc3ccccc23)C(=O)NCCc2c[nH]c3ccccc23)cc1OC	0.199%
Cc1c(-c2ccc(Br)cc2)nc2ccccn12	-16.3%
O=C(NN1CCOCC1)c1ccc(Cl)cc1Cl	-0.63%
COc1cccc(C2=NO[C@@H]3C(=O)N(Cc4ccccc4)C(=O)[C@H]23)c1OC	-0.559%
COc1ccc(O)c(/C=N/NC(=O)c2cc(=O)[nH]c3ccccc23)c1	-5.01%
Cc1ccc(S(=O)(=O)NCCC(=O)N2CCN(S(=O)(=O)c3cccc(F)c3)CC2)cc1C	-16.2%
COc1ccc(-c2cn(CCC(=O)NCc3ccc(C)cc3)c(CCN)n2)cc1	-3.37%
CC1CCN(C(=O)C2CCN(C(=O)c3cc4sccc4n3Cc3ccc(F)cc3)CC2)CC1	-6.67%
COc1ccccc1-c1cc(C(F)(F)F)nc(S(=O)(=O)CCCC(=O)N2CCOCC2)n1	2.47%
CC(=O)Nc1ccc(OCC(O)CN2CCN(c3ccccc3Cl)CC2)cc1 (centres unmarked)	-50.2%
Cc1ccc(CSC2=Nc3ccccc3C3=NC(CC(=O)NCc4ccco4)C(=O)N23)cc1 (centres unmarked)	-51.8%
COCC(=O)N(Cc1cc2ccc(C)c(C)c2n2nnnc12)C1CCCC1	9.66%
CCn1cnc2c1c(=O)n(Cc1cccc(Br)c1)c(=O)n2Cc1ccccc1	12%
CCCS(=O)(=O)N1CCCC(C(=O)N2CCN(c3ccccc3)CC2)C1 (centres unmarked)	6.84%
